Patent publication US10299477B2 (priority 2015, dated 2019)

Assays:
Phytophthora infestans = type: in vivo; settings: 250 ppm spray (2.5 ml/pot), preventive; 5-10 days after inoculation; control value class
[1] = system: Colletotrichum orbiculare; settings: 250 ppm spray (2.5 ml/pot), preventive; 6-10 days after inoculation; control value class
Magnaporthe grisea = type: in vivo; settings: 250 ppm spray, preventive; control value class

| SMILES | Test F control value (late blight on tomato) (Phytophthora infestans) | Test H control value (anthracnose on cucumber) [1] | Test A control value (blast on rice) (Magnaporthe grisea) |
| --- | --- | --- | --- |
| Cn1c(-c2c(F)cccc2F)c(-c2cc(OCOCC[Si](C)(C)C)ccc2Cl)ccc1=O [Compound 246] | L (L shows 50% or less of control values) | L (L shows 50% or less of control values) | L (L shows 50% or less of control values) |
| CCOc1cc(F)c(-c2c(-c3cc(OC)cc(OC)c3Cl)ccc(=O)n2C)c(F)c1 [Compound 247] | H (H shows more than 50% of control values) | H (H shows more than 50% of control values) | H (H shows more than 50% of control values) |
| COc1cc(OC)c(Cl)c(-c2ccc(=O)n(C)c2-c2c(F)cc(OC(C)(C)C)cc2F)c1 [Compound 248] | L (L shows 50% or less of control values) | L (L shows 50% or less of control values) | H (H shows more than 50% of control values) |
| COc1cc(OC)c(Cl)c(-c2ccc(=O)n(C)c2-c2c(F)cc(O)cc2F)c1 [Compound 249] | L (L shows 50% or less of control values) | H (H shows more than 50% of control values) | L (L shows 50% or less of control values) |
| CCn1c(-c2c(F)cccc2F)c(-c2cc(OCCC#N)ccc2Cl)ccc1=O [Compound 250] | L (L shows 50% or less of control values) | H (H shows more than 50% of control values) | H (H shows more than 50% of control values) |
| Cn1c(-c2c(F)cccc2F)c(-c2cc(OCCC#N)ccc2Cl)ccc1=O [Compound 251] | L (L shows 50% or less of control values) | H (H shows more than 50% of control values) | H (H shows more than 50% of control values) |
| CCCCOc1ccc(Cl)c(-c2ccc(=O)n(CC)c2-c2c(F)cccc2F)c1 [Compound 252] | L (L shows 50% or less of control values) | H (H shows more than 50% of control values) | H (H shows more than 50% of control values) |
| CCCCOc1ccc(Cl)c(-c2ccc(=O)n(C)c2-c2c(F)cccc2F)c1 [Compound 253] | L (L shows 50% or less of control values) | H (H shows more than 50% of control values) | H (H shows more than 50% of control values) |
| CCCCCOc1ccc(Cl)c(-c2ccc(=O)n(CC)c2-c2c(F)cccc2F)c1 [Compound 254] | L (L shows 50% or less of control values) | L (L shows 50% or less of control values) | H (H shows more than 50% of control values) |
| CCCCCOc1ccc(Cl)c(-c2ccc(=O)n(C)c2-c2c(F)cccc2F)c1 [Compound 255] | L (L shows 50% or less of control values) | L (L shows 50% or less of control values) | L (L shows 50% or less of control values) |
| CCn1c(-c2c(F)cccc2F)c(-c2cc(OC(C)C)ccc2Cl)ccc1=O [Compound 256] | L (L shows 50% or less of control values) | H (H shows more than 50% of control values) | H (H shows more than 50% of control values) |
| CC(C)Oc1ccc(Cl)c(-c2ccc(=O)n(C)c2-c2c(F)cccc2F)c1 [Compound 257] | L (L shows 50% or less of control values) | L (L shows 50% or less of control values) | H (H shows more than 50% of control values) |
| CCn1c(-c2c(F)cccc2F)c(-c2cc(OCC(C)C)ccc2Cl)ccc1=O [Compound 258] | L (L shows 50% or less of control values) | H (H shows more than 50% of control values) | L (L shows 50% or less of control values) |
| CC(C)COc1ccc(Cl)c(-c2ccc(=O)n(C)c2-c2c(F)cccc2F)c1 [Compound 259] | L (L shows 50% or less of control values) | L (L shows 50% or less of control values) | H (H shows more than 50% of control values) |
| CCn1c(-c2c(F)cccc2F)c(-c2cc(OC[Si](C)(C)C)ccc2Cl)ccc1=O [Compound 260] | L (L shows 50% or less of control values) | H (H shows more than 50% of control values) | L (L shows 50% or less of control values) |
| Cn1c(-c2c(F)cccc2F)c(-c2cc(OC[Si](C)(C)C)ccc2Cl)ccc1=O [Compound 261] | L (L shows 50% or less of control values) | L (L shows 50% or less of control values) | L (L shows 50% or less of control values) |

| SMILES | Test F control value (late blight on tomato) (Phytophthora infestans) | Test H control value (anthracnose on cucumber) [1] | Test A control value (blast on rice) (Magnaporthe grisea) |
| --- | --- | --- | --- |
| CCn1c(-c2c(F)cccc2F)c(-c2cc(OCC(F)(F)F)ccc2Cl)ccc1=O [Compound 262] | L (L shows 50% or less of control values) | H (H shows more than 50% of control values) | H (H shows more than 50% of control values) |
| Cn1c(-c2c(F)cccc2F)c(-c2cc(OCC(F)(F)F)ccc2Cl)ccc1=O [Compound 263] | L (L shows 50% or less of control values) | H (H shows more than 50% of control values) | H (H shows more than 50% of control values) |
| CCn1c(-c2c(F)cccc2F)c(-c2ccccc2[S+](C)[O-])ccc1=O (stereo not drawn) [Compound 264] | L (L shows 50% or less of control values) | L (L shows 50% or less of control values) | H (H shows more than 50% of control values) |
| CCn1c(-c2c(F)cccc2F)c(-c2ccc(Cl)cc2)ccc1=O [Compound 265] | L (L shows 50% or less of control values) | H (H shows more than 50% of control values) | H (H shows more than 50% of control values) |
| CCn1c(-c2c(F)cccc2F)c(-c2ccc(Cl)cc2)cc(Cl)c1=O [Compound 266] | L (L shows 50% or less of control values) | L (L shows 50% or less of control values) | H (H shows more than 50% of control values) |
| CCN1C(=O)CCC(c2ccc(C)cc2)=C1c1c(F)cccc1F [Compound 267] | L (L shows 50% or less of control values) | L (L shows 50% or less of control values) | H (H shows more than 50% of control values) |
| Cc1ccc(C2=C(c3c(F)cccc3F)N(C)C(=O)CC2)cc1 [Compound 268] | L (L shows 50% or less of control values) | L (L shows 50% or less of control values) | H (H shows more than 50% of control values) |
| CCn1c(-c2c(F)cccc2F)c(-c2ccc(C)cc2)ccc1=O [Compound 269] | L (L shows 50% or less of control values) | H (H shows more than 50% of control values) | H (H shows more than 50% of control values) |
| Cc1ccc(-c2ccc(=O)n(C)c2-c2c(F)cccc2F)cc1 [Compound 270] | L (L shows 50% or less of control values) | L (L shows 50% or less of control values) | H (H shows more than 50% of control values) |
| CCn1c(-c2c(F)cccc2F)c(-c2ccc(C)cc2)cc(Br)c1=O [Compound 271] | L (L shows 50% or less of control values) | H (H shows more than 50% of control values) | H (H shows more than 50% of control values) |
| CCn1c(-c2c(F)cccc2F)c(-c2ccc(C)cc2)cc(Cl)c1=O [Compound 272] | L (L shows 50% or less of control values) | H (H shows more than 50% of control values) | H (H shows more than 50% of control values) |
| Cc1ccc(-c2cc(Br)c(=O)n(C)c2-c2c(F)cccc2F)cc1 [Compound 273] | L (L shows 50% or less of control values) | L (L shows 50% or less of control values) | H (H shows more than 50% of control values) |
| Cc1ccc(-c2cc(Cl)c(=O)n(C)c2-c2c(F)cccc2F)cc1 [Compound 274] | L (L shows 50% or less of control values) | H (H shows more than 50% of control values) | H (H shows more than 50% of control values) |
| CCn1c(-c2c(F)cccc2F)c(-c2cc(OCCC[Si](C)(C)C)ccc2Cl)ccc1=O [Compound 275] | L (L shows 50% or less of control values) | L (L shows 50% or less of control values) | L (L shows 50% or less of control values) |
| Cn1c(-c2c(F)cccc2F)c(-c2cc(OCCC[Si](C)(C)C)ccc2Cl)ccc1=O [Compound 276] | L (L shows 50% or less of control values) | L (L shows 50% or less of control values) | L (L shows 50% or less of control values) |
